Results reported in the supplement of paper PMC8047034.
Where a name gives a salt, the structure may show the parent alone. This is one part of the list. Many values rest on one well or one pass, so single values are uncertain.

Tested on: OVCAR4
Test: log2 surviving fraction (library drug vs vehicle, or drug + carboplatin vs carboplatin alone; relative to plate median); ovarian cancer lines: OVCAR4 is platinum-sensitive and Ov4Carbo platinum-resistant; higher = more cell survival
Conditions: library drug concentration 10 µM; 7 days; carboplatin co-treatment 5 µM

Row | Compound | log2 surviving fraction
1 | Nc1nc(O)c2ncn(CCC(CO)CO)c2n1 [Penciclovir] | 0.209
2 | CC1=C(/C=C/C(C)=C/C=C/C(C)=C\C(=O)O)C(C)(C)CCC1 [Isotretinoin] | -1.82
3 | NCC[C@H](O)C(=O)N[C@@H]1C[C@H](N)[C@@H](O[C@H]2O[C@H](CN)[C@@H](O)[C@H](O)[C@H]2O)[C@H](O)[C@H]1O[C@H]1O[C@H](CO)[C@@H](O)[C@H](N)[C@H]1O [Amikacin sulfate] | 1.81
4 | Cc1cccc(Nc2ccncc2S(=O)(=O)NC(=O)NC(C)C)c1 [Torsemide (Demadex)] | 0.0937
5 | O=C1CC[C@@]2(O)[C@H]3Cc4ccc(O)c5c4[C@@]2(CCN3CC2CC2)[C@H]1O5 [Naltrexone HCl] | -0.267
6 | NC(=O)c1cccnc1 [Nicotinamide (Niacinamide)] | 1.07
7 | OC[C@@H](O)[C@@H](O)[C@H](O)[C@@H](O)CO [Sorbitol (Glucitol)] | 0.131
8 | C=C1CC[C@H](O)C/C1=C/C=C1\CCC[C@]2(C)[C@@H]([C@H](C)CCCC(C)(C)O)CC[C@@H]12 [Calcifediol] | -2.14
9 | CCCc1nc(C)c2c(=O)nc(-c3cc(S(=O)(=O)N4CCN(CC)CC4)ccc3OCC)[nH]n12 [Vardenafil (Vivanza)] | -0.153
10 | C[C@@](Cc1ccc(O)c(O)c1)(NN)C(=O)O [Carbidopa] | -0.395
11 | N#CC1(c2ccc(NC(=O)c3cccnc3NCc3ccncc3)cc2)CCCC1 [Apatinib (YN968D1)] | -2.33
12 | N[C@@H](C(=O)N[C@@H]1C(=O)N2C(C(=O)O)=C(Cl)CS[C@H]12)c1ccccc1 [Cefaclor (Ceclor)] | 0.436
13 | Cc1noc(NS(=O)(=O)c2ccc(N)cc2)c1C [Sulfisoxazole] | 0.586
14 | C=CCN1CC[C@]23c4c5ccc(O)c4O[C@H]2C(=O)CC[C@@]3(O)[C@H]1C5 [Naloxone HCl] | 0.86
15 | C=C1c2c(Cl)ccc(O)c2C(=O)C2=C(O)[C@]3(O)C(=O)C(C(N)=O)=C(O)[C@@H](N(C)C)[C@@H]3[C@@H](O)[C@H]12.O=C(O)c1cc(S(=O)(=O)O)ccc1O [Meclocycline Sulfosalicylate] | -0.676
16 | Cc1nc2n(c(=O)c1CCN1CCC(c3noc4cc(F)ccc34)CC1)CCCC2O (stereo not given) [Paliperidone (Invega)] | 0.961
17 | Cc1nnc(NS(=O)(=O)c2ccc(N)cc2)s1 [Sulfamethizole (Proklar)] | -0.228
18 | O=C(CCNNC(=O)c1ccncc1)NCc1ccccc1 [Nialamide] | -0.371
19 | N#CC[C@H](C1CCCC1)n1cc(-c2ncnc3[nH]ccc23)cn1 | -1.07
20 | O=c1[nH]c2ccccc2n1CCCN1CCC(n2c(=O)[nH]c3cc(Cl)ccc32)CC1 [Domperidone (Motilium)] | 0.437

Row | Compound | log2 surviving fraction
21 | Cc1nnc(C(C)C)n1C1C[C@H]2CC[C@@H](C1)N2CC[C@H](NC(=O)C1CCC(F)(F)CC1)c1ccccc1 (stereo in doubt) [Maraviroc] | 1.73
22 | NCC(=O)CCC(=O)O [5-Aminolevulinic acid hydrochloride] | 0.58
23 | CCN(CC)CC(=O)Nc1c(C)cccc1C [Lidocaine (Alphacaine)] | -1.63
24 | CCCN[C@H]1CCc2nc(N)sc2C1 [Pramipexole (Mirapex)] | 0.549
25 | CC1CC(OC(=O)C(O)c2ccccc2)CC(C)(C)C1 (stereo not given) [Cyclandelate] | -1.07
26 | CCC(=O)OCC(=O)[C@@]1(OC(=O)CC)[C@@H](C)C[C@H]2[C@@H]3CCC4=CC(=O)C=C[C@]4(C)[C@@]3(F)[C@@H](O)C[C@@]21C [Betamethasone Dipropionate (Diprolene)] | 0.24
27 | COC(c1ccccc1)(c1ccccc1)[C@H](Oc1nc(C)cc(C)n1)C(=O)O [Ambrisentan] | 0.0446
28 | Cc1cnc(C(=O)O)c[n+]1[O-] [Acipimox] | 1.77
29 | CCN(CC)C(=O)/C(C#N)=C/c1cc(O)c(O)c([N+](=O)[O-])c1 [Entacapone] | 0.645
30 | CC[C@H]1OC(=O)[C@H](C)[C@@H](O[C@H]2C[C@@](C)(OC)[C@@H](O)[C@H](C)O2)[C@H](C)[C@@H](O[C@@H]2O[C@H](C)C[C@H](N(C)C)[C@H]2O)[C@](C)(O)C[C@@H](C)/C(=N\OCOCCOC)[C@H](C)[C@@H](O)[C@]1(C)O [Roxithromycin (Roxl-150)] | -0.756
31 | CN(C)CCCN1c2ccccc2CCc2ccc(Cl)cc21 [Clomipramine hydrochloride (Anafranil)] | -1.84
32 | COc1ncnc(NS(=O)(=O)c2ccc(N)cc2)c1OC [Sulfadoxine (Sulphadoxine)] | 0.335
33 | CC(N)C12CC3CC(CC(C3)C1)C2 (stereo not given) [Rimantadine (Flumadine)] | -0.489
34 | COC(=O)C1=CO[C@@H](O)[C@@H]2C(CO)=CC[C@H]12 [Genipin] | 1.58
35 | O=c1ccn([C@@H]2O[C@H](CO)[C@@H](O)[C@H]2O)c(=O)[nH]1 [Uridine] | -0.377
36 | CO[C@H]1O[C@@H]2O[C@@]3(C)CC[C@H]4[C@H](C)CC[C@@H]([C@H]1C)[C@@]24OO3 [Artemether (SM-224)] | -0.0348
37 | CCOc1nc2cccc(C(=O)O)c2n1Cc1ccc(-c2ccccc2-c2nnn[nH]2)cc1 [Candesartan (Atacand)] | 0.371
38 | CN1C(=O)CCS(=O)(=O)C1c1ccc(Cl)cc1 (stereo not given) [Chlormezanone (Trancopal)] | 0.795
39 | CN1CC2c3ccccc3Oc3ccc(Cl)cc3C2C1 (stereo not given) [Asenapine] | -2.41
40 | Nc1ccn([C@@H]2O[C@H](CO)[C@@H](O)[C@H]2O)c(=O)n1 [Cytidine] | -0.0982
